Assay results: the supplement of paper PMC10126150
Sequences with one replicate were seen in a single cluster, so their values are uncertain.

System: ATP
Test: switch fluorescence ratio, 500 uM ATP over buffer (Cy3 cluster intensity, sum of 5 cycles each) (fold (ratio)); higher = stronger signal-on switching upon ATP binding; sequences stand for … in TCGTCGGCAGCGTCAGATGTGTATAAGAGACAGTTTTTTTTTTTTTTTTTTTTTTTTT…TC
Conditions: aptamer strand: ATP DNA aptamer (quencher-CACCTGGGGGAGTATTGCGGAGGAAGG + anchor), 100 nM annealed; ATP concentration: 500 uM; one replicate
How it was run: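 The fluorescence ratio divides summed target-cycle Cy3 intensity by summed buffer-cycle Cy3 intensity for each cluster and is averaged per switch-domain sequence. Cy3-labelled switching-strand clusters on a modified Illumina MiSeq flow-cell were annealed to 100 nM quencher-labelled ATP aptamer, then imaged in selection buffer and again after 15 min with 500 uM ATP at 22 °C. Five such cycles were run, with NaOH stripping and re-annealing between them, and clusters outside 100-1000 RFU were excluded.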
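Note: ATP exposure 15 min at 22 °C before imaging.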

CAGCGAAGGG was tested, and the switch fluorescence ratio was 1.

CGATTCAAGA was tested, and the switch fluorescence ratio was 1.01.

With ATTCCTGACG the switch fluorescence ratio was 1.13.

In the case of CCCCGCAGGT, the switch fluorescence ratio is reported as 3.99.

With ATAAATGCTT the switch fluorescence ratio was 0.99.

For CCGCCGGTAT, the switch fluorescence ratio was 1.55.

GGTGGACATC showed a switch fluorescence ratio of 0.968.

CGGATGAATC gave a switch fluorescence ratio of 1.01.

Sequence GGGGAGGATG has a switch fluorescence ratio of 0.915.

CATATATTCG was tested, and the switch fluorescence ratio was 1.

Work on TATCAGAGTT yielded a switch fluorescence ratio of 0.954.

Work on CATAGTGAA yielded a switch fluorescence ratio of 1.03.

Sequence AGCATCCGAT has a switch fluorescence ratio of 1.04.

In the case of AATGTTA, the switch fluorescence ratio is reported as 0.999.

For GGACAGCAGA, the switch fluorescence ratio was 1.01.

Sequence GCACGCGTAA has a switch fluorescence ratio of 1.01.

GCTGGTCGAT gave a switch fluorescence ratio of 1.06.

GTGATTAATT was tested, and the switch fluorescence ratio was 0.958.

Sequence CGTGGCCAG has a switch fluorescence ratio of 0.927.

Sequence TAGAATCACA has a switch fluorescence ratio of 0.99.

Sequence TCAGGAATAG has a switch fluorescence ratio of 1.53.

ATAAAGACCC gave a switch fluorescence ratio of 1.01.

TACGACCCGC gave a switch fluorescence ratio of 1.33.

In the case of ACATTCTCTA, the switch fluorescence ratio is reported as 0.968.

With AGGGCTGTCA the switch fluorescence ratio was 0.993.

Work on TAGCGGTTAC yielded a switch fluorescence ratio of 1.49.

Sequence TGTTTTCCTA has a switch fluorescence ratio of 1.01.

Sequence CAAAGCCACA has a switch fluorescence ratio of 1.04.

Sequence TTAGCTCGG has a switch fluorescence ratio of 0.956.

CGGGTTAAGA was tested, and the switch fluorescence ratio was 1.06.

Sequence CGCGTTCTGC has a switch fluorescence ratio of 1.01.

GCAAGCAGGG was tested, and the switch fluorescence ratio was 1.03.

In the case of GGGCATCAGA, the switch fluorescence ratio is reported as 1.04.

For GCGGTATGCA, the switch fluorescence ratio was 0.969.

Sequence CCATCGTCTG has a switch fluorescence ratio of 1.04.

ATAGTAAAGT gave a switch fluorescence ratio of 1.02.

In the case of GTTGGAACCA, the switch fluorescence ratio is reported as 1.01.

In the case of CGTGGAGCAT, the switch fluorescence ratio is reported as 1.07.

CCGGCCGATC was tested, and the switch fluorescence ratio was 1.46.

TCGCTACACA showed a switch fluorescence ratio of 0.991.

TTCTATTGCT gave a switch fluorescence ratio of 1.01.

With CGACGTCAAT the switch fluorescence ratio was 4.81.

TTCCGGTCAC gave a switch fluorescence ratio of 1.33.

With CCTGGCTGTA the switch fluorescence ratio was 1.09.

Work on GAGTACCTAG yielded a switch fluorescence ratio of 1.03.

CATAGGTGAA gave a switch fluorescence ratio of 0.962.

With TCGTCCCCGT the switch fluorescence ratio was 0.996.

TACAGATGTT gave a switch fluorescence ratio of 1.

GGCCCAGGGG gave a switch fluorescence ratio of 1.03.

For AGCACGCGAC, the switch fluorescence ratio was 1.49.

With GTTGAGTAGT the switch fluorescence ratio was 1.07.

With TAGGGGCCAT the switch fluorescence ratio was 1.03.

ACGTTATG was tested, and the switch fluorescence ratio was 1.15.

ACCCGATCTG gave a switch fluorescence ratio of 0.998.

With TTTGGTGAGA the switch fluorescence ratio was 1.04.

With GCGTTAGCC the switch fluorescence ratio was 0.978.

In the case of TGATTGGCTT, the switch fluorescence ratio is reported as 0.976.

GTTTATGATG showed a switch fluorescence ratio of 1.

In the case of CTTGCGGGAT, the switch fluorescence ratio is reported as 1.05.

TTTTGTCTG was tested, and the switch fluorescence ratio was 0.93.

With AGATATGGGG the switch fluorescence ratio was 0.958.

For GACTTAATTC, the switch fluorescence ratio was 1.03.

GTTATATTCG gave a switch fluorescence ratio of 1.05.

GGATGGTCCG showed a switch fluorescence ratio of 0.995.

With CACGTTTTG the switch fluorescence ratio was 0.993.

With TAGTTGTATG the switch fluorescence ratio was 1.

With TTCTTATTCG the switch fluorescence ratio was 0.98.

TAAGGTCTGG showed a switch fluorescence ratio of 0.996.

For GCAACGGTGG, the switch fluorescence ratio was 0.992.

With ACTTGAGGCT the switch fluorescence ratio was 0.971.

In the case of GGATTAAAGA, the switch fluorescence ratio is reported as 1.02.

In the case of TCACGGAGCT, the switch fluorescence ratio is reported as 1.49.

For CTATACCTAA, the switch fluorescence ratio was 1.04.

Sequence ACGGATCATG has a switch fluorescence ratio of 1.

GGGTGTGAAT showed a switch fluorescence ratio of 1.03.

In the case of TATGCTACGA, the switch fluorescence ratio is reported as 1.04.

Work on GTGAAAGTAT yielded a switch fluorescence ratio of 0.995.

With GAGTACAACG the switch fluorescence ratio was 0.986.

With TGGAATCTGT the switch fluorescence ratio was 0.962.

Sequence TCAGATATGG has a switch fluorescence ratio of 0.987.

In the case of GGCTCATTTG, the switch fluorescence ratio is reported as 1.09.

With GACCGTTCTG the switch fluorescence ratio was 1.02.

With TAAAATCACC the switch fluorescence ratio was 1.17.

In the case of AAACACATAC, the switch fluorescence ratio is reported as 1.57.

ACCTACCAAG showed a switch fluorescence ratio of 1.3.
